The values below come from the RNAGym collection of RNA variant scans (doi:10.1093/nar/gkz1192).

The source gives no read counts; variants with many changes may rest on few reads.

B1: CPEB3 Ribozyme (parent)
chain: UAACAGGGGGCCACAGCAGAAGCGUUCACGUCGCAGCCCCUGUCAGAUUCUGGUGAAUCUGCGAAUUCUGCUGUAUAUCUC

Variants of B1 are the subject of this series. As to the kind of experiment: self-cleavage, relative activity (ratio to wild type); higher = more cleavage; in vitro, sequencing. In outline: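 Barcoded CPEB3 ribozyme mutants, produced by rounds of error-prone PCR, self-cleaved while being transcribed with T7 RNA polymerase for 5 hours at 37°C and during a subsequent 15 min DNase I step before EDTA was added. Sequencing of template-switched cDNA on Illumina gave cleaved and total reads, and DNA sequencing assigned barcodes to variants. Each variant's relative activity is its cleaved/total read fraction divided by the unmutated ribozyme's fraction, averaged across three batches. A variant needed a minimum of 5 reads.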
As to G10A G24A U43A, the self-cleavage was determined as 0.33.

Consider C11A U43C U54C C79A C81A, for which the self-cleavage was found to be 0.09.

As for C11A A28U G55U, the self-cleavage came out at 0.37.

For the variant G10C G42A U43C A45G U51A, the self-cleavage is 0.05.

Take C11G G33A U48A U78C: the self-cleavage worked out at 0.31.

Turning to C11A U25C C29A, the self-cleavage was found to be 0.27.

Regarding G10C A18G C34G U67C C81U, the self-cleavage was determined as 0.12.

Consider C11U U51A U78G, for which the self-cleavage was found to be 0.28.

On to G10C U25C U31A U80C, for which the self-cleavage stood at 0.37.

Take C11G C14A A28G A47G G61A: the self-cleavage was determined as 0.18.

Consider C12A A13G U31A A35U U60A, for which the self-cleavage worked out at 0.14.

Regarding C11G C17A A21G U25A U31A U41A A77U, the self-cleavage is 0.01.

With G10A U26A U43A, the self-cleavage was determined as 0.14.

For the variant G10C A21G C29G G33C A35C U41C, the self-cleavage was found to be 0.05.

On to G10A U25C A35G U41C G46C, for which the self-cleavage is 0.2.

In the case of C11G A15G A28G U51G G61A, the self-cleavage stood at 0.02.

G10A U31C G36C G53A A65U: the self-cleavage turned out to be 0.07.

With C11A A18G U72C, the self-cleavage stood at 0.42.

Take C11G A20G U31C C44G U49C G53A A77G: the self-cleavage was determined as 0.21.

In the case of C11U C17A G19U U25C U41A C62G, the self-cleavage stood at 0.05.

As to C11U A15G A20G A28G U72C, the self-cleavage was 0.15.

With C12A A21G U31C G33A, the self-cleavage came out at 0.1.

Turning to C11G U26C U51A A65U U76A, the self-cleavage turned out to be 0.06.

C11U A18U A35U A45U C62A: the self-cleavage was found to be 0.19.

Consider G10A U25C G42U, for which the self-cleavage was found to be 0.3.

Turning to C12A A35U U54C U80A, the self-cleavage was found to be 1.3.

As for C11G G24C U66C G73A, the self-cleavage was found to be 0.35.

Take C11U G33A U80C: the self-cleavage was determined as 0.44.

For G10U A15U U25C A28G U60A, the self-cleavage came out at 0.14.

For the variant G10U A20G U26A, the self-cleavage stood at 0.05.

As for C11A U48A G55A U60C U74C, the self-cleavage was found to be 0.15.

As to C11U C12A C23U U26C G30U U69C U76C, the self-cleavage came out at 0.08.

For the variant C11U G33A C38U C62G, the self-cleavage came out at 0.74.

As to C11G U43A A47G C59A, the self-cleavage came out at 0.15.

C11G A21G U80A: the self-cleavage is 0.17.

As to C11G A21G U80C, the self-cleavage came to 0.2.

Regarding G10C C29U U43C A47G U51C U54C U60C, the self-cleavage was 0.08.

For C11A A13G U60C U67C U69A, the self-cleavage stood at 0.13.

C11G A15U G16A G30A G36A U41C U60A: the self-cleavage was found to be 0.06.

For the variant C11G A18U G33U, the self-cleavage came out at 0.05.

As to G10A U31C A57G C62A, the self-cleavage came out at 0.13.

On to C11A U26A U78C, for which the self-cleavage came out at 0.05.

For C11A A15G A18U U51C U54G, the self-cleavage is 0.06.

As to C11U U41A A47G A56U A57G, the self-cleavage was 0.08.

As for C11G A21G U41A U48C A57G, the self-cleavage came out at 0.05.

Regarding G10U U31C U43A U67G, the self-cleavage was 0.05.

For the variant C11G U26C A47G U72A, the self-cleavage came to 0.33.

As to C11G A21G A45C, the self-cleavage came out at 0.34.

For the variant C12A G24U U26C, the self-cleavage stood at 0.17.

Regarding G10U A21G A45G U67G, the self-cleavage turned out to be 0.31.

Turning to G10C C11A U74A, the self-cleavage was 0.32.

On to G10A U25C A77U, for which the self-cleavage came to 0.39.

Consider C11U U25A U31A U72C, for which the self-cleavage came to 0.15.

For the variant C11U A20U A75G U76C, the self-cleavage amounted to 0.06.

For the variant C11U U60A U76C U78C, the self-cleavage turned out to be 0.12.

Turning to C11U A15G U48C A57G U66C U78C, the self-cleavage worked out at 0.05.

In the case of C11A U26C U41C, the self-cleavage was found to be 0.42.

As for C11U A35G C39U U43C, the self-cleavage worked out at 0.29.

On to C11U U25C U26C G55A U80G, for which the self-cleavage was 0.09.

Turning to G10A U26C U48C U60C, the self-cleavage stood at 0.04.

On to C11G A18U U31C U58A, for which the self-cleavage is 0.06.

For G10A G30A U43A A47G U60A A65G, the self-cleavage turned out to be 0.05.

C11U A28U U49C A57G U66A: the self-cleavage came out at 0.06.

On to C11G C40A A45U U60C G63C, for which the self-cleavage was 0.03.

With G10U C40A U60A U66C U74C, the self-cleavage was 0.05.

Take C11G C39U C44A U66A U67C: the self-cleavage amounted to 0.04.

For the variant C11G A28G U58A U69C, the self-cleavage came to 0.05.

With C11G A13G U72C, the self-cleavage worked out at 0.09.

Regarding C11U C44U U72C, the self-cleavage is 0.43.

With G10U A21G A47G U51A U74C, the self-cleavage was determined as 0.04.

G10C G46U U54A A56G: the self-cleavage is 0.22.

As to G10C C14A A20G U51A G52U, the self-cleavage was found to be 0.3.

As for C11A U25C G33A A65G, the self-cleavage worked out at 0.04.

Take C11G A13U U31C G42U U66C U69A: the self-cleavage was found to be 0.05.

As for C12A A45G U54C U72A, the self-cleavage was determined as 0.61.

In the case of C11G U26C U48C, the self-cleavage came out at 0.09.

Consider C11U U41C U43C G63A U69C U72C, for which the self-cleavage is 0.02.

C11A A20C U43A A64G: the self-cleavage worked out at 0.05.

Consider G10U A64G U78A, for which the self-cleavage worked out at 0.15.

C11U U60C U69C A77U: the self-cleavage was found to be 0.08.

C11U U60A U69A: the self-cleavage is 0.12.

For the variant G10C A21G A77G, the self-cleavage was 0.17.

As for C12A A28U C40A U43A, the self-cleavage was 0.23.

For the variant C11U A47C G52U U72A, the self-cleavage stood at 0.1.
